The supplement of paper PMC4166925
± gives the standard deviation of the averaged measurements. The full ranking holds about 33,000 sequences; the median of “E-score (dimensionless, -0.5 to 0.5)” is about -0.049, and the highest 2% start at about 0.37. This is one part of the list.

These sequences were tested on T1, PmTbr T-box DNA-binding domain (GST fusion) (assay: PBM E-score of 8-mer (E-score (dimensionless, -0.5 to 0.5)); Tbr is Tbrain of the sea star Patiria miniata (Pm) or the sea urchin Strongylocentrotus purpuratus (Sp); higher = stronger binding preference; most listed sequences are background and not binding sites). Conditions: the construct has about 5 more residues each side.
T1 sequence: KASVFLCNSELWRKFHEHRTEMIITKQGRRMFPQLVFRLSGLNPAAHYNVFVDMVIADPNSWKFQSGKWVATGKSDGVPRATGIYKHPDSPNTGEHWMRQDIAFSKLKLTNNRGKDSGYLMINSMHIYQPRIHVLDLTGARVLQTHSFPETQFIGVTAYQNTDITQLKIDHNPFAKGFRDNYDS
Experimental: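 Universal protein-binding microarray (Agilent AMADID 016060, 60-bp probes with a 35-bp variable region) incubated with 200 nM GST-fused Patiria miniata Tbr T-box DNA-binding domain (residues 272-466) in PBS pH 7.5. Scored for every ungapped 8-mer (given with its reverse complement) by the Universal PBM Analysis Suite as E-score (modified Wilcoxon-Mann-Whitney enrichment, range -0.5 to 0.5; >0.45 counts as bound) and Z-score of median probe intensity. Two replicate arrays (datasets 1 and 2).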
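Also: 200 nM protein in PBS on universal arrays averaged over duplicate arrays.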

Sequence	PBM E-score of 8-mer
CATGCAAC	0.199 ± 0.021
AAAAGACC	-0.181 ± 0.096
CCAGCGAC	-0.0756 ± 0.1
CTAATAAC	0.00645 ± 0.027
AGTATAGG	-0.228 ± 0.027
ATGCCGCC	-0.211 ± 0.18
CTTGCATC	-0.122 ± 0.011
CTTGCGAA	0.328 ± 0.029
ATCGTCGG	-0.0578 ± 0.11
ACTCGTTC	-0.161 ± 0.039
ACTGCGTC	-0.157 ± 0.043
ACGGAAAT	-0.189 ± 0.071
GAACGCAA	-0.0799 ± 0.066
AACAAAAA	0.00012 ± 0.15
AGGTTAGG	-0.0806 ± 0.06
ACCCAGGT	0.18 ± 0.0094
GCGAGTCA	0.146 ± 0.027
CGCAACTC	0.199 ± 0.045
TAGCACCA	0.403 ± 0.015
CCAACCGG	-0.0451 ± 0.026
AGTTCCTC	-0.131 ± 0.0053
TGGACCAA	-0.237 ± 0.0078
ATAGACAC	0.149 ± 0.0088
GCCGATCA	0.0187 ± 0.044
GATTCGAA	0.147 ± 0.023

Sequence	PBM E-score of 8-mer
ACTAATTA	-0.143 ± 0.022
AGATACAC	0.126 ± 0.0017
ACCGGGCT	-0.218 ± 0.006
CATCACAC	0.4576 ± 0.0032
AGATTGCT	-0.171 ± 0.023
CACCATCC	0.148 ± 0.025
GAACAATC	-0.017 ± 0.0059
AAATCAGC	0.0647 ± 0.069
AGTGATGC	0.0431 ± 0.022
GTTGAATA	-0.108 ± 0.0019
CATGCAGG	-0.125 ± 0.12
CTTCGCCC	-0.0791 ± 0.096
ATATCCAC	-0.00342 ± 0.0057
AAATGAGC	-0.15 ± 0.021
ATTCGGCG	0.101 ± 0.024
AGGCGTAT	-0.0891 ± 0.033
CGTACCTC	-0.0246 ± 0.026
GGCGAACA	0.0467 ± 0.018
CAACGCAA	0.0764 ± 0.049
CCCGGCGG	-0.0651 ± 0.034
CGTCGTCC	-0.136 ± 0.019
GCTAACAC	0.43 ± 0.0048
ACATGGGG	0.0236 ± 0.092
CCCATAAG	0.00496 ± 0.008
AATGGCTA	-0.13 ± 0.025

Sequence	PBM E-score of 8-mer
ACCCTAGG	0.203 ± 0.0028
AGCCTCCT	-0.194 ± 0.057
GGGTATGA	-0.0607 ± 0.05
CCAAAAGA	-0.0901 ± 0.029
CACCGACG	0.193 ± 0.03
GTTAGCAA	0.33 ± 0.034
AGGCGAGC	-0.25 ± 0.068
TCGTGAGA	0.232 ± 0.03
AACCAGGC	-0.0364 ± 0.0037
CTCGCACC	0.4721 ± 0.0042
AAAGGCGC	0.206 ± 0.035
TCAAGTCA	0.0315 ± 0.049
GTCCGGCA	-0.285 ± 0.11
ACGTTTTC	0.0911 ± 0.12
AAGAATTC	-0.185 ± 0.055
GTCTGAAC	-0.1603 ± 0.0013
AAGGCGAA	-0.0352 ± 0.16
ATTAAAAA	-0.208 ± 0.052
AGGCAACC	-0.109 ± 0.022
CCAGTGAC	0.177 ± 0.027
ACCGGCAT	-0.05 ± 0.063
ATATGAAC	-0.232 ± 0.069
GTCACGGA	0.051 ± 0.034
CAGATTGG	-0.135 ± 0.071
ATATGGGG	0.0105 ± 0.029

Sequence	PBM E-score of 8-mer
AAGAAGTA	-0.131 ± 0.0061
AAGATACA	-0.167 ± 0.029
ATGGGGGC	-0.341 ± 0.065
CAGTCCCC	0.116 ± 0.027
GGTCTGTA	-0.0886 ± 0.0071
AGAGAGCG	-0.179 ± 0.017
CACCAAGC	0.145 ± 0.055
CACAAATG	0.0269 ± 0.041
ACTAGACG	-0.00246 ± 0.011
CAACGGAA	-0.0758 ± 0.022
GCGGACCC	-0.119 ± 0.044
GTACGGCA	-0.122 ± 0.0074
GCTAGTGA	0.122 ± 0.015
CGGCGCAG	-0.176 ± 0.069
ACCCTCAT	-0.0646 ± 0.038
AGTACCAC	0.111 ± 0.0066
CCGGTTAG	-0.117 ± 0.062
ATACTCCG	-0.00617 ± 0.029
AACGAGTG	0.233 ± 0.052
TAACAGGA	0.0692 ± 0.067
GCCGATAC	-0.132 ± 0.033
CGAAATGC	-0.0228 ± 0.008
CACGCATC	0.231 ± 0.013
CAACAATA	0.06 ± 0.0016
ACCCCCCT	-0.152 ± 0.11

Sequence	PBM E-score of 8-mer
TACTGTCA	0.222 ± 0.022
AGGATTCA	-0.0165 ± 0.1
CTACCGAA	-0.107 ± 0.043
CTGGAGTC	-0.396 ± 0.072
CTCCAAGA	0.00553 ± 0.041
CGCCTAAC	0.095 ± 0.0026
ACTTCCCG	0.182 ± 0.038
GGCTAGTA	-0.14 ± 0.051
AGTTAGGA	-0.171 ± 0.054
ACCCTCGT	0.064 ± 0.033
AATTGCGC	0.0091 ± 0.0091
CATGGTAA	-0.0548 ± 0.069
CTTTCCAC	0.173 ± 0.0037
ACGTATAC	0.0634 ± 0.028
GTGCGACA	0.412 ± 0.021
AGGAATGA	-0.146 ± 0.03
ACGCAAGT	0.0866 ± 0.014
AGTTAGTC	0.0468 ± 0.002
CGCGGGAC	-0.0551 ± 0.027
CATGGCAC	0.217 ± 0.044
CGTGGGCA	-0.0846 ± 0.031
CGTATCGA	0.0436 ± 0.059
CCACTCGA	0.0299 ± 0.037
AACATTGA	-0.0887 ± 0.0012
CGTGAGAA	0.349 ± 0.039

Sequence	PBM E-score of 8-mer
CACTTCCG	0.37 ± 0.013
CTGCCGCC	0.0885 ± 0.073
GTTGCCTA	-0.123 ± 0.054
CAAGTTGA	0.116 ± 0.0034
GACCATCA	-0.233 ± 0.053
AAAGTTAA	-0.156 ± 0.049
ACTTATAC	0.0734 ± 0.081
AAGTAAGT	-0.0499 ± 0.021
AACGGCAG	-0.0199 ± 0.076
CAATTCTC	-0.00722 ± 0.0093
GATCTCGC	0.287 ± 0.058
ATTGTGTC	0.225 ± 0.0046
ATAGAAAG	-0.0905 ± 0.11
GTTGGACA	0.118 ± 0.033
ATACCGCG	-0.0911 ± 0.038
ATTTATTG	-0.2667 ± 0.00054
GAGCGCTC	-0.123 ± 0.15
TACTATGA	-0.35 ± 0.09
AGTCGGAC	-0.289 ± 0.022
ATACCAAA	-0.106 ± 0.015
CCGATTTC	-0.0839 ± 0.034
AACTTCTC	-0.0488 ± 0.043
CCCCGCCC	0.0864 ± 0.0062
ACAGATAG	0.133 ± 0.019
ATGCACTC	-0.0205 ± 0.076

Sequence	PBM E-score of 8-mer
GCTGGGTA	-0.312 ± 0.099
AACAGTAT	-0.0671 ± 0.081
ACTTATGG	-0.0397 ± 0.046
CCATTGAG	0.0528 ± 0.01
AACGTTCC	-0.132 ± 0.063
GGAGTTTA	-0.00974 ± 0.034
CTTGAGAA	0.0967 ± 0.061
ATTTCGTA	-0.0252 ± 0.001
CAGGCTGC	-0.0417 ± 0.014
GTATTAAA	-0.255 ± 0.01
CCTAACAA	0.184 ± 0.055
CATCGCTC	-0.0662 ± 0.035
TAACGGTA	-0.0327 ± 0.085
TACTTTGA	-0.111 ± 0.023
GGGTCCGA	-0.123 ± 0.0063
CCTGATAA	-0.0611 ± 0.078
CCCCTAAA	-0.0904 ± 0.008
GGATCGCA	0.145 ± 0.089
CCAGGAGA	-0.265 ± 0.047
CATGGAGA	-0.185 ± 0.049
AATGCGGG	-0.187 ± 0.05
ATGGAAGC	-0.2 ± 0.058
CAGACATC	-0.273 ± 0.015
ATTAGGAG	-0.213 ± 0.017
CCGATAAC	0.118 ± 0.074

Sequence	PBM E-score of 8-mer
ACAGTGAT	0.0998 ± 0.024
GTTTTGAA	-0.154 ± 0.11
GGCGGTAA	-0.134 ± 0.027
AAGGTTCC	-0.257 ± 0.054
CCAAGTGA	0.146 ± 0.01
ATCGCACC	0.4642 ± 0.0032
GGCGTACC	-0.137 ± 0.039
CATAGATA	-0.161 ± 0.051
TTCGCGAA	0.3702 ± 0.0034
CGGAAAGC	-0.0354 ± 0.05
ATCTGCCC	-0.128 ± 0.072
AAACTTAG	-0.0934 ± 0.013
TCGATACA	-0.0855 ± 0.021
ACTAGCAC	0.381 ± 0.013
CCGGTGAC	0.0841 ± 0.059
CTCCGATA	0.03408 ± 0.00015
AGTTGTAA	0.0996 ± 0.046
ATTTTATA	-0.154 ± 0.01
AGCAATGG	0.0749 ± 0.041
GCTTCTAC	-0.2661 ± 0.0012
GACCAGTC	-0.312 ± 0.023
ATGGTGAG	0.223 ± 0.0051
AGGACAGA	0.0658 ± 0.03
CTTGAATA	-0.295 ± 0.018
CCTCCCAA	-0.189 ± 0.077

Sequence	PBM E-score of 8-mer
GGAGGAGA	-0.011 ± 0.0051
CAAATTGC	-0.0755 ± 0.056
ACGCTGCT	0.0117 ± 0.0035
GAACTAGA	-0.127 ± 0.0057
ATATGCTA	0.105 ± 0.0031
GCAAATAA	-0.00101 ± 0.049
CGTCTCTA	-0.108 ± 0.016
AACCTTCG	-0.135 ± 0.0027
AACCGTCA	0.0593 ± 0.013
CTGGCGAC	0.124 ± 0.059
TTGTCAAA	0.144 ± 0.09
GTACTCAC	0.165 ± 0.039
AAGTAAAG	-0.229 ± 0.036
TAGGTAGA	-0.0825 ± 0.048
CCTTCAAA	-0.154 ± 0.045
ATTCCCAG	-0.25 ± 0.009
CTGAGATA	-0.0661 ± 0.016
ACTGAGCT	-0.0168 ± 0.017
AAAGACTT	-0.307 ± 0.017
